Where “and” joins values, the source holds several entries; their conditions need not be identical. Equal values may be shown once. Some of the results follow. The main result of the screen is listed elsewhere. These columns were measured beside it and carry no call. Most of these compounds were active or inconclusive in the main read-out, so they are no random draw. The note in brackets gives the kind of curve behind each potency; many fits are weak.
Test: qHTS Assay for Lipid Storage Modulators (AID 1519)
Conditions: Drosophila S3 cells, BODIPY lipid droplet/cell ratio, laser cytometry, cells loaded with oleic acid
Procedure, shortened: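 Cells seeded at 5,000 per well were treated with compounds over a concentration series and loaded with oleic acid (400 uM, as added). Lipid droplet fluorescence (488 nm excitation, 500-530 nm channel) was read by laser-scanning cytometry and normalized to 20 uM Triacsin C.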

[1] = measured here: cell count channel max response
[2] = measured here: lipid (BODIPY) channel AC50
[3] = measured here: lipid channel max response
Tags describe the fitted curve by direction and shape.

CC1CC2C3CC(F)C4=CC(=O)C=C[C@@]4(C)[C@@]3(F)C(O)C[C@]2(C)[C@]1(O)C(=O)COC(=O)C(C)(C)C (stereo partly specified)
max response [1]: -2.65%
AC50 [2]: 11.2 µM [falling, partial curve, poor fit]
max response [3]: -35%

O=C(Oc1ccccc1)N1CCC[C@@]2(CCN(c3ccccc3)C2)C1
max response [1]: 23.5%
AC50 (measured here: cell number channel AC50): 0.282 µM [rising, partial curve, poor fit]
max response [3]: -17%

CN1CCN(c2ncc3nc(CCc4ccccc4)c(=O)n(CCC#N)c3n2)CC1
max response [1]: 9.78%
AC50 [2]: 0.0631 µM [rising, full curve, poor fit]
max response [3]: 12.7%

Nc1nc2c(ncn2C2OC(COC(=O)c3ccccc3)C(OC(=O)c3ccccc3)C2OC(=O)c2ccccc2)c(=O)[nH]1 (stereo unspecified)
max response [1]: -19.1%
AC50 [2]: 39.8 µM [falling, single point]
max response [3]: -41.1%

CN1CCN(c2ccnc(-c3cccc(NS(C)(=O)=O)c3)n2)CC1
max response [1]: 24%
AC50 [2]: 22.4 µM [rising, partial curve, poor fit]
max response [3]: 32.2%

Oc1ccc2c(c1)OCC1c3cc4c(cc3OC21)OCO4 (stereo unspecified)
max response [1]: 16.7%
AC50 [2]: 14.1 µM [rising, partial curve, poor fit]
max response [3]: 32.4%

C=C1C([C@@]2(C)C(OC(C)=O)CC(=O)O[C@@](C)(COC(C)=O)C2CC(=O)OC)C(OC=O)C(OC(=O)C(O)C(C)CC)[C@]2(C)C(c3ccoc3)CC(=O)C12O (stereo partly specified)
max response [1]: -9.65%
AC50 [2]: 3.98 µM [falling, partial curve]
max response [3]: -9%

N#CCCn1c(=O)c(-c2cccc(C#N)c2)nc2cnc(Oc3ccccc3)nc21
max response [1]: 3.76%
AC50 [2]: 0.126 µM [rising, full curve, poor fit]
max response [3]: 3.78%

COc1ccc2c(c1)OCC(Cc1ccc(OC)c(OC)c1)C2=O (stereo unspecified)
max response [1]: -18.1%
AC50 [2]: 25.1 µM [falling, partial curve]
max response [3]: -71.7%

COc1ccc(Oc2ncc3nc(C)c(=O)n(C)c3n2)cc1
max response [1]: 26.7%
AC50 [2]: 0.141 µM [rising, full curve]
max response [3]: 39.7%

Oc1ccc([C@@H]2CNCCc3c2cc(O)c(O)c3Cl)cc1
max response [1]: 27.8%
AC50 [2]: 7.94 µM [rising, full curve, poor fit]
max response [3]: 55.7%

COc1ncc2ncc(=O)n(CCC#N)c2n1
max response [1]: 18.3%
AC50 [2]: 0.0501 µM [rising, full curve, poor fit]
max response [3]: 24.1%

O=C(c1ccco1)N1CCC2(CC1)CCN(c1ccc(-c3ccccc3)cc1)CC2
max response [1]: 22.8%
AC50 [2]: 14.1 µM [rising, partial curve, poor fit]
max response [3]: 39.8%

O=C(OCCOCCO)c1ccccc1Nc1cccc(C(F)(F)F)c1
max response [1]: -20.8%
AC50 [2]: 20 µM [falling, single point]
max response [3]: -52.4%

O=c1c(CCc2ccccc2)nc2cnc(Oc3ccccc3)nc2n1C[C@H]1CCCO1
max response [1]: 13.8%
AC50 [2]: 0.1 µM [rising, full curve]
max response [3]: -0.512%

CC(C)CN1CCCC2(CCN(C(=O)c3ccco3)CC2)C1
max response [1]: 24.2%
AC50 [2]: 2.82 µM [rising, partial curve, poor fit]
max response [3]: 31%

Cc1noc(C)c1-c1nc(N(C)Cc2ccco2)c2ccccc2n1
max response [1]: 11%
AC50 [2]: 1.12 µM [rising, partial curve]
max response [3]: 12%

COc1ncc2nc(C)c(=O)n(Cc3ccc(F)cc3)c2n1
max response [1]: 21.9%
AC50 [2]: 1 µM [rising, full curve, poor fit]
max response [3]: 23.5%

O=C(Nc1cccc(F)c1)N1CC[C@@]2(CCCN(C(=O)c3cnccn3)C2)C1
max response [1]: 10.6%
AC50 [2]: 0.708 µM [rising, full curve, poor fit]
max response [3]: 22.7%

NC(=O)c1ncn(C2OC(CO)C(O)C2O)c1N (stereo unspecified)
max response [1]: 21.6%
AC50 [2]: 39.8 µM [rising, single point]
max response [3]: 30.8%

COc1c2c(cc3occ(-c4ccc5c(c4)OCO5)c(=O)c13)OC(C)(C)C=C2
max response [1]: 14.5%
AC50 [2]: 0.0631 µM [rising, full curve, poor fit]
max response [3]: -0.915%

COc1ncc2nc(-c3cn(C)c4ccccc34)c(=O)n(C[C@H]3CCCO3)c2n1
max response [1]: 16%
AC50 [2]: 1.26 µM [rising, full curve, poor fit]
max response [3]: 19.4%

O[C@@H]1[C@@H]2c3cc4c(cc3CN3CCC(=C[C@@H]1O)[C@H]23)OCO4
max response [1]: -18.7%
AC50 [2]: 10 µM [falling, partial curve, poor fit]
max response [3]: -33.6%

COC(=O)N1CCC2(CC1)CCN(c1cccc(-c3ccccc3)c1)CC2
max response [1]: 17.6%
AC50 [2]: 4.47 µM [rising, partial curve, poor fit]
max response [3]: 21.5%

COCCn1c(=O)cnc2cnc(OCc3ccccc3)nc21
max response [1]: 29.5%
AC50 [2]: 0.2 µM [rising, full curve]
max response [3]: 37.7%

CC[C@H](/C=C/[C@@H](C)[C@H]1CC[C@H]2C3CC=C4C[C@@H](O)CC[C@]4(C)C3CC[C@]12C)C(C)C (stereo partly specified)
max response [1]: -27.5%
AC50 [2]: 0.001 µM [falling, full curve, poor fit]
max response [3]: -30.8%

O=c1c(-c2ccc(Cl)cc2)nc2cnc(N3CCNCC3)nc2n1-c1ccccc1
max response [1]: 23.1%
AC50 [2]: 0.891 µM [rising, partial curve, poor fit]
max response [3]: 31.6%

CC1CCC2C(C)(C)C3CC12CC[C@]3(C)O (stereo partly specified)
max response [1]: -14.5%
AC50 [2]: 8.91 µM [rising, single point]
max response [3]: -10.4%

COc1ccc2[nH]cc(CCNc3ccnc(-c4ccccc4C)n3)c2c1
max response [1]: 13.5%
AC50 [2]: 0.562 µM [rising, full curve]
max response [3]: 19.2%

CC1CC[C@@]2(C(=O)O)CC[C@]3(C)C(=CCC4[C@@]5(C)CCC(O)C(C)(C)C5CC[C@@]43C)C2C1C (stereo partly specified)
max response [1]: 33.1%
AC50 [2]: 39.8 µM [rising, single point]
max response [3]: 43.3%

COc1cccc(Cn2c(=O)c(-c3ccccc3)nc3cncnc32)c1
max response [1]: 20.9%
AC50 [2]: 0.0316 µM [rising, full curve]
max response [3]: 31.6%

COc1ccc(C(=O)N2CCC[C@@]3(CCN(Cc4ccccc4)C3)C2)cc1
max response [1]: -0.776%
AC50 [2]: 0.00562 µM [rising, full curve, poor fit]
max response [3]: 7.1%

CCC(=O)c1c(O)cc(O)cc1O
max response [1]: 21.8%
AC50 [2]: 22.4 µM [rising, partial curve, poor fit]
max response [3]: 46.3%

C[C@]12CCC(=O)C=C1CCC1C2C(O)C[C@]2(C)C1CC[C@]2(O)C(=O)COC(=O)CCC(=O)O (stereo partly specified)
max response [1]: 32.8%
AC50 [2]: 39.8 µM [rising, single point]
max response [3]: 45.4%

NCCCCN
max response [1]: 24.2% and 42.3%
AC50 [2]: 39.8 µM [rising, single point] and 44.7 µM [rising, single point]
max response [3]: 32% and 43.6%

O=C(Nc1ccccc1)N1CCC2(CCNCC2)CC1
max response [1]: 24.8%
AC50 [2]: 0.0316 µM [rising, full curve, poor fit]
max response [3]: 36.7%

O=C(O)c1cc2ccccc2[nH]1
max response [1]: 27.5%
AC50 [2]: 39.8 µM [rising, single point]
max response [3]: 40.5%

CCNc1ncc2nc(-c3cc(F)cc(F)c3)c(=O)n(-c3ccccc3)c2n1
max response [1]: 5.51%
AC50 [2]: 1 µM [rising, full curve]
max response [3]: 14.3%

O=S(=O)(c1ccccc1)N1CCC2(CCCN(Cc3cc(C(F)(F)F)cc(C(F)(F)F)c3)C2)CC1
max response [1]: -3.88%
AC50 [2]: 3.55 µM [falling, full curve]
max response [3]: -35.8%

COCCn1c(=O)c(-c2ccc(OC)cc2)nc2cnc(Oc3cccc(Cl)c3)nc21
max response [1]: 17.7%
AC50 [2]: 0.02 µM [rising, full curve, poor fit]
max response [3]: 25.4%

CCNc1ncc2nc(-c3ccc(F)cc3)c(=O)n(-c3ccc(OC)cc3)c2n1
max response [1]: 26.5%
AC50 [2]: 0.447 µM [rising, full curve, poor fit]
max response [3]: -4.66%

NC(=O)c1cc[n+](CC2=C(C(=O)O)N3C(=O)C(NC(=O)C(c4ccccc4)S(=O)(=O)[O-])C3SC2)cc1 (stereo unspecified)
max response [1]: 20.5%
AC50 [2]: 39.8 µM [rising, single point]
max response [3]: 34.8%

CCCCC(=O)OC1CCC2C3CCc4cc(O)ccc4C3CC[C@]12C (stereo partly specified)
max response [1]: 22.3%
AC50 [2]: 15.8 µM [rising, partial curve]
max response [3]: 34.1%

FC(F)(F)c1ccccc1-c1cncnc1-n1ccnc1
max response [1]: 23%
AC50 [2]: 0.316 µM [rising, full curve]
max response [3]: 27.6%

O=C(Nc1cccc(F)c1)N1CCC2(CC1)CCN(C(=O)c1cccc(F)c1)CC2
max response [1]: 9.01%
AC50 [2]: 0.251 µM [rising, full curve, poor fit]
max response [3]: 21.6%

COc1ccc(-n2c(=O)c(C)nc3cnc(N(C)C)nc32)cc1
max response [1]: 11.3%
AC50 [2]: 0.0708 µM [rising, full curve, poor fit]
max response [3]: 14.7%

Cc1cc(C)c(S(=O)(=O)Nc2cccc(C(F)(F)F)c2)c(C)c1
max response [1]: 20.6%
AC50 [2]: 3.98 µM [rising, full curve]
max response [3]: 32.2%

CSc1ccc2c(c1)N(CC[C@H]1CCCCN1C)c1ccccc1S2
max response [1]: -24.8%
AC50 [2]: 15.8 µM [falling, single point]
max response [3]: -30.6%

CCNc1ncc2ncc(=O)n(CCc3ccccc3)c2n1
max response [1]: 18.1%
AC50 [2]: 0.0178 µM [rising, full curve, poor fit]
max response [3]: 23.1%

COc1ccc(NC(=O)N2CC3(CCN(C(=O)c4cnccn4)CC3)C2)cc1
max response [1]: 13%
AC50 [2]: 0.0224 µM [rising, full curve, poor fit]
max response [3]: 23.2%

COc1ccccc1CNc1ncnc2ccc(-c3cccc(NS(C)(=O)=O)c3)cc12
max response [1]: -5.8%
AC50 [2]: 0.562 µM [rising, single point]
max response [3]: -8.2%

CN(C)c1ccc(-c2cncnc2NCCN2CCOCC2)cc1
max response [1]: 31.7%
AC50 [2]: 2.82 µM [rising, full curve]
max response [3]: 34.7%

From PubChem BioAssay (NCATS)
